In PubChem BioAssay AID1508624 (National Center for Advancing Translational Sciences (NCATS), 2021):
About 120 (0.25%) of roughly 48,000 compounds were called active. Another 4% or so got no clear call; they are omitted. Calls follow the shape of the dose curve; as a rule, active = well fitted activation curve with a large enough effect; inconclusive = small, poorly fitted or top-dose-only effect, or another doubt; inactive = no such curve, though single readings can be large or run the other way. The list shows a part of the results.

Test: Primary qHTS for Identification of Small Molecule Activators of Huntingtin-Antisense Promoter Activity; also: nearly all actives have a fitted effect of over 55% in size
Details: HEK293 HTT-AS promoter firefly luciferase reporter (activity 0% = vehicle and -100% = no light), 24 h; series mostly up to 57.5 µM; activity change, positive = activation: at the top concentration
Outline: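 Firefly luciferase signal from promoter-reporter HEK293 cells was scaled between vehicle (0%) and zero RLU (-100%). Compounds were tested at final concentrations of up to 57.5 uM over 24 h at 37 degrees C. PTC124 at 50 uM final served as control inhibitor.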

Activity change, positive = activation, inactive:
Cc1cc2c(cc1S(=O)(=O)Nc1ccc(C(C)C)cc1)OCCN2C -42.5%
Cc1ccc(O)c(NC(=O)CCS(=O)(=O)c2nc(-c3cccs3)cc(C(F)(F)F)n2)c1 -66.9%
Cc1cccc(-n2c(C)cc(C(=O)C(=O)Nc3nncs3)c2C)c1 9.46%
Cc1ccc(C(C)C)c(OCC(=O)Nc2cc(-c3nc4ccccc4[nH]3)ccc2C)c1 -41.9%
Cc1cccc(-n2cnc3cc(C(=O)NCc4ccccc4Cl)ccc32)c1 -26.4%
CCN(C(=O)c1coc(=O)c2ccccc12)c1ccccc1C -11.8%
CC(C)c1ccc(C(=O)Nc2cc(-c3ccccc3F)nn2-c2ccccc2)cc1 -19.1%
Cc1ccc(-c2nnn3c2nc(NCCc2ccc(Cl)cc2)c2ccccc23)cc1 6.52%
CCCOc1ccc(CNC(=O)Cn2ncn3c(cc4sc(CC)cc43)c2=O)cc1 4.69%
CCOc1ccc(CNCc2c(C(=O)O)n(Cc3ccc(C)cc3)c3cc(C)ccc23)cc1 -42.1%
Cc1c(Cl)cccc1NC(=O)CN(CCc1ccccc1)S(=O)(=O)c1ccccc1 -35.3%
Cc1ccccc1Nc1ncnc2c1cnn2C 3.32%
CCCCN(CC)CCNC(=O)c1cc2c(=O)[nH]c3ccccc3c2n1C -11.8%
Cc1cccc(C(=O)N2CCc3cc(CNS(=O)(=O)c4ccc(Cl)s4)ccc32)c1 -29.7%
O=C(NCc1ccc(F)cc1)c1ccc2c(O)c(S(=O)(=O)c3ccccc3)c(=O)[nH]c2c1 -3.11%
CCCCn1c(NCc2ccc(OC)cc2O)nc2ccccc21 -17.7%
Cc1ccccc1NS(=O)(=O)c1ccc2[nH]cc(C(=O)N3CCCCC3)c(=O)c2c1 -12.7%
COc1ccc(C)cc1-n1nnc(-c2nc(-c3ccccc3Cl)no2)c1N 7.58%
O=C(NCc1ccccc1)c1ccc(CSc2nc3cccnc3n2Cc2cccc(F)c2)cc1 -23.9%
CCCCn1nc(NC(=O)c2cccc(Cl)c2)c2cc3ccccc3nc21 0%
CCCc1nc2ccccc2n2c(-c3ccccc3)c3c(=O)n(C)c(=O)n(C)c3c12 -23%
Cc1ccccc1CN1C(=O)c2ccccc2Sc2ccc(C(=O)N3CCCC3)cc21 -34.3%
O=c1c(S(=O)(=O)c2ccccc2)cn(Cc2cccc(F)c2)c2cc(N3CCOCC3)c(F)cc12 -30.3%
COc1ccc(OC(=O)c2nc(SCc3ccc(F)cc3)ncc2Cl)cc1 -2.5%
CCOc1ccc(NC(=O)c2cnn3c2NC(c2cccc(OC)c2)=CC3c2ccccc2)cc1 (configuration not stated) -35.3%
Cc1ccc(C2=NN(CC(=O)NCCC(C)C)C(=O)CC2)cc1 -7.41%
COc1cccc(-c2nnc(-c3ccccc3NC(=O)c3cccc(C(F)(F)F)c3)o2)c1 -7.44%
